# In all, about 43,000 compounds went through this assay and about 200 (0.47%) were called active. Roughly 12% stayed inconclusive and do not appear here. Calls come from the whole dose curve; as a rule, active = well fitted cell-killing curve with a large enough effect; inconclusive = small, poorly fitted or top-dose-only effect, or effect the other way; inactive = flat fitted curve, though single readings scatter. The list shows a part of the results.
# Assay: Cell viability qHTS assay in S16 Pmp22-F2sN cells; note: nearly all actives have a fitted effect of over 65% in size
# Conditions: S16 Pmp22-F2sN Schwann cells (luciferase reporters placed in the Pmp22 gene) viability, CellTiter-Glo, 24 h; series mostly up to 57.5 µM; activity change, negative = cytotoxicity: at the top concentration
# Summary of the method: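 S16 Schwann cells carrying the Pmp22-F2sN reporter, seeded in 1536-well format, were exposed to library compounds for 24 h at 37C. Viability was read as CellTiter-Glo luminescence after 15 min at room temperature.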
# % is set by controls: 0 for no effect and ±100 for the full control effect.
row,Structure (SMILES),"activity change, negative = cytotoxicity"
1,Cc1ccc2c(c1)c1c(c(=O)n(-c3ccccc3)c(=O)n1CC(=O)NCCC1=CCCCC1)n2C,inactive: 11.7%
2,COc1ccc(N(C(=O)c2ccccc2C)S(=O)(=O)c2ccc(C)cc2)cc1,inactive: -17.9%
3,CC1CN(C(=O)CCC(=O)NCc2cccs2)c2cc(Cl)ccc2O1 (stereo not drawn),inactive: 1.47%
4,CCOC(=O)C1=C(CN2CCN(c3cc(C)ccc3C)CC2)NC(=O)NC1c1ccccc1 (stereo not drawn),inactive: -8.66%
5,Cc1cc(C)c(S(=O)(=O)NCC(c2ccc(N(C)C)cc2)N2CCc3ccccc32)c(C)c1 (stereo not drawn),inactive: 0.973%
6,COc1ccc(CNC(=O)Cc2coc3ccc(C(C)C)cc23)cc1,inactive: -5.18%
7,O=C(CN1C(=O)COc2ccc(S(=O)(=O)N3CCCCC3)cc21)NCc1ccccc1Cl,inactive: -5.47%
8,Cc1ccc(C)c(CN2C(=O)c3ccccc3S(=O)(=O)c3ccc(C(=O)N4CCN(C)CC4)cc32)c1,inactive: -0.915%
9,Cc1cc(Nc2cc(Cl)ccc2C)n2nc(Cc3ccccc3)nc2n1,inactive: 8.25%
10,COc1ccc(-c2nnc(SCC(=O)Oc3cccc(C)c3C)o2)cc1,inactive: 1.01%
11,COc1cccc(CNC(=O)CCc2nc(-c3ccc(C)cc3)no2)c1,inactive: -0.808%
12,Cc1cc(OCCn2cc(C(=O)c3ccco3)c3ccccc32)ccc1Cl,inactive: 0.37%
13,COc1ccccc1NC(=O)CSc1oc(-c2ccco2)nc1S(=O)(=O)c1ccc(Br)cc1,inactive: -16.3%
14,CCN(CC)S(=O)(=O)c1ccc2nc(NC(=O)c3ccc(Br)o3)sc2c1,inactive: -0.974%
15,O=C(Nc1nc2ccc(Cl)cc2s1)c1ccc(S(=O)(=O)N2CCCC2)cc1,inactive: -10.4%
16,CCOc1cccc(C2c3[nH]c4ccccc4c3CCN2C(=O)CCc2ccccc2)c1 (stereo not drawn),inactive: 2.63%
17,Cc1cccc(NC(=O)C2CCCN(c3nnc(-n4c(C)ccc4C)s3)C2)c1C (stereo not drawn),inactive: -1.78%
18,O=C(NCc1noc2ccccc12)Nc1ccc(F)cc1F,inactive: -3.53%
19,CCOC(=O)c1nc(Nc2ccccc2C)c2ccccc2n1,inactive: -16.2%
20,CC(C)c1ccc(NC(=O)CN2C(=O)c3cccc4cccc2c34)cc1,inactive: -0.776%
21,COc1ccc(C)cc1NC(=O)CN1C(=O)COc2ccc(S(=O)(=O)N3CCCCCC3)cc21,inactive: -1.28%
22,CCOC(=O)C1CCCN(C(=O)c2ccc3c(c2)N(Cc2cccc(Cl)c2)C(=O)c2ccccc2S3(=O)=O)C1 (stereo not drawn),inactive: 11.7%
23,CCCN(C(=O)Cn1c(=O)oc2cc(Cl)ccc21)c1ccc(C(C)C)cc1,inactive: 0.231%
24,Cc1ccc(Cl)cc1N1CCN(C(=O)c2cn(C)c3ccc(S(=O)(=O)N4CCC(C)CC4)cc3c2=O)CC1,inactive: -2.07%
25,CCCOc1ccc(C(=O)N(Cc2cccs2)C2CCS(=O)(=O)C2)cc1 (stereo not drawn),inactive: 2.38%

row,Structure (SMILES),"activity change, negative = cytotoxicity"
1,O=C(NCC(c1ccc(Cl)cc1)N1CCCCC1)c1ccccc1 (stereo not drawn),inactive: 3.44%
2,CCNc1nc2c(c(=O)n(C)c(=O)n2C)n1CC(O)COc1ccccc1 (stereo not drawn),inactive: -4.02%
3,COC(=O)c1cc(NC(=O)c2cnc(SC)nc2-c2ccccc2)cc(C(=O)OC)c1,inactive: 0.82%
4,Cc1cc2c(cc1S(=O)(=O)CCC(=O)Nc1ccc(OC(F)(F)F)cc1)OCC(=O)N2,inactive: 24.4%
5,Cc1c2cnn(CC(=O)O)c(=O)c2c(C)n1Cc1cccc(Cl)c1,inactive: 7.91%
6,COc1ccc(NC(=O)Nc2cccc(C)n2)c(OC)c1,inactive: 5.77%
7,O=C(CC1N=C2c3ccccc3N=C(SCc3ccc(Cl)cc3)N2C1=O)NC1CCCCC1 (stereo not drawn),inactive: -1.09%
8,COc1cc(OC)cc(-c2nc3nc(C)c(CCC(=O)Nc4ccc(C)cc4)c(C)n3n2)c1,inactive: 24.9%
9,Nc1c(C(=O)Nc2ccccc2Cl)nnn1Cc1cccc(Cl)c1,inactive: -3.21%
10,Cc1ccc(-n2ncc3c(N4CCC(C)CC4)ncnc32)cc1C,inactive: 13.2%
11,Cc1cccc(-c2noc(CNC(=O)c3ccc(C)cc3C)n2)c1,inactive: -20.5%
12,COc1ccc(C(C(=O)NCc2ccccc2)N(C(=O)Cn2nnc3ccccc32)c2ccc(F)cc2)cc1 (stereo not drawn),inactive: 5.06%
13,Cc1ccc(CNC(=O)COCc2cc(-c3ccc4c(c3)OCO4)on2)cc1,inactive: 2.75%
14,CCOc1ccc2cc(-c3nnc(Nc4ccccc4F)s3)c(=O)oc2c1,inactive: 4.99%
15,CCOc1ccc(S(=O)(=O)c2cn(Cc3ccc(C)cc3)c3ccc(OC)cc3c2=O)cc1,inactive: -6.62%
16,Cc1ccc(-c2cnc(NCc3ccc(C(C)C)cc3)n2C)cc1,inactive: 4.86%
17,O=C(NCc1cccc(Br)c1)c1ccc(-n2cnc3cccnc32)cc1,inactive: -5.81%
18,Cc1ccccc1CNCCCSc1nnnn1-c1ccccc1,inactive: 10.2%
19,Cc1ccc2oc(=O)c3cnn(CC(=O)Nc4ccc(Br)cc4C)c3c2c1,inactive: 3.46%
20,CCc1ccccc1NC(=O)C(=O)c1cc(C)n(-c2ccccc2F)c1C,inactive: -2.79%
21,Cc1cc(C)c(Cn2c(C)c(CNCc3ccccc3C)c(C(=O)O)c2C)c(C)c1,inactive: -9.46%
22,O=C(c1ccco1)N(Cc1cccnc1)c1nc2c(F)cccc2s1,inactive: 24.7%
23,CCc1cccc(C)c1NC(=O)COCc1cc(-c2ccc3c(c2)OCO3)on1,inactive: -12.5%
24,CCOCCCNC(=O)C(c1ccc(Cl)cc1)N(Cc1ccc2c(c1)OCO2)C(=O)c1ccccc1O (stereo not drawn),inactive: -1.36%
25,Cc1cccc(NC(=O)c2ccc(F)c(S(=O)(=O)N(C)C3CCCCC3)c2)c1,inactive: 2.57%

row,Structure (SMILES),"activity change, negative = cytotoxicity"
1,CCOc1ccc(C(=O)N2CCN(Cc3cc(=O)n4nc(-c5cccc(OC)c5)sc4n3)CC2)cc1,inactive: -4.32%
2,CCN(Cc1nc(-c2ccc(OC)cc2)oc1C)S(=O)(=O)c1ccc(Cl)cc1,inactive: -20.3%
3,COc1ccc(-c2nc(S(=O)(=O)c3ccccc3)c(N3CCCCC3)o2)cc1,inactive: -27.1%
4,CCCSc1ncc(Cl)c(C(=O)Nc2ccc(CC)cc2)n1,inactive: -5.47%
5,Cc1ccc(CNC(=O)CSc2nc3ccsc3c(=O)n2-c2ccc(C(=O)O)cc2)cc1,inactive: 12.2%
6,CCN(CCCNC(=O)c1cc2cc3cc(OC)ccc3nc2s1)c1ccccc1,inactive: -0.951%
7,COc1ccc(NC(=O)Cn2c(=O)n(-c3ccccc3)c(=O)c3ccc(C(=O)NCc4ccc5c(c4)OCO5)cc32)cc1,inactive: -3.32%
8,CCOC(=O)C1CCC(CN(Cc2c(Cl)cccc2Cl)S(=O)(=O)c2ccc(F)c(C)c2)CC1 (stereo not drawn),inactive: -3.85%
9,COc1cccc(NC(=O)CCNS(=O)(=O)c2ccc3c(c2)CCCC(=O)N3)c1,inactive: 4.29%
10,CCOCCCNC(=O)N1CCN(S(=O)(=O)c2ccc3c(ccn3C)c2)CC1,inactive: -6.53%
11,COc1ccc(-c2noc(-c3ccc(N4CCOCC4)c([N+](=O)[O-])c3)n2)cc1OC,inactive: -0.288%
12,COc1ccccc1N1CCN(CCC(=O)Nc2cccc(F)c2)CC1,inactive: -18.1%
13,O=C(Cn1c(=O)n(-c2ccccc2)c(=O)c2ccc(C(=O)NCc3ccc4c(c3)OCO4)cc21)Nc1ccc(Br)cc1F,inactive: 8.16%
14,CCOc1ccc(CNC(=O)c2cnc(SC)nc2CC)cc1,inactive: -1.47%
15,COc1ccc(CNc2nc(-c3ccc(OC)c(OC)c3)cc(C(F)(F)F)n2)cc1,inactive: 16.5%
16,CCCCSCCCNC(=O)CN1C(=O)COc2ccc(S(=O)(=O)N3CCCC3)cc21,inactive: 0.184%
17,Cn1c(=O)c2c(SCC(=O)NCC3CCCO3)nc(-c3ccccc3F)nc2n(C)c1=O (stereo not drawn),inactive: 2.4%
18,CCOC(=O)c1ccc(NS(=O)(=O)c2cc3c(cc2C)n(C)c(=O)c(=O)n3C)cc1,inactive: 0.135%
19,CC(C)NC(=O)c1cnc2sc(N3CCCCCC3)nn2c1=O,inactive: 26.5%
20,COc1ccc(CN(C(=O)Nc2ccccc2)c2ccccn2)cc1OC,inactive: 2.98%
21,O=S(=O)(Nc1c(F)cccc1F)c1ccc2c(c1)OCCO2,inactive: 7.17%
22,Cc1ccc2oc(C(=O)Nc3c(C(=O)c4ccc(C)c(F)c4)oc4ccccc34)cc(=O)c2c1,inactive: 2.34%
23,COc1ccc(C)cc1NC(=O)C(CCSC)NS(=O)(=O)c1ccc2c(c1)oc(=O)n2C (stereo not drawn),inactive: -8.5%
24,CCn1nnc2cc(C(=O)Nc3cccc(C(F)(F)F)c3)ccc21,inactive: -12%
25,CCOC(=O)N1CCc2c(sc3c2c(=O)n(Cc2ccccc2)c(=O)n3CC(=O)Nc2ccccc2F)C1,inactive: 2.41%

row,Structure (SMILES),"activity change, negative = cytotoxicity"
1,COc1cccc(NC(=O)c2sc3nc(C)c(C(=O)Nc4ccc(C)cc4C)c(-c4ccc(Br)cc4)c3c2N)c1,inactive: -22.1%
2,Cc1cc(Cl)ccc1NC(=O)C1CCN(S(=O)(=O)c2ccc3[nH]c(=O)ccc3c2)CC1,inactive: -3.36%
3,Cc1ccc2nc(SC(Cc3cc(Cl)ccc3Cl)C(=O)O)[nH]c2c1 (stereo not drawn),inactive: 0.865%
4,COc1ccc(CNC(=O)c2cc3sccc3n2C)cc1,inactive: -1.38%
5,NC(=O)C1(N2CCCCC2)CCN(C(=O)Nc2ccc(Cl)c(Cl)c2)CC1,inactive: -11.9%
6,CCOC(=O)c1cc(-c2ccccc2)nn1Cc1ccccc1,inactive: -1.82%
7,O=C(CCOc1ccccc1)N(Cc1cccnc1)c1nc2c(Cl)cccc2s1,inactive: -12.2%
8,Cc1ccc(C2c3[nH]c4ccccc4c3CCN2C(=O)c2ccc(N(C)C)cc2)cc1 (stereo not drawn),inactive: -3.2%
9,Cc1cccc(Cn2c(=O)n(CCc3ccccc3)c(=O)c3sc4ccccc4c32)c1,inactive: 11.9%
10,Cc1ccc(CCNC(=O)CCSCc2ccccc2F)cc1,inactive: 14.8%
11,CCc1cccc(CC)c1NC(=O)Cc1csc(C)n1,inactive: 1.58%
12,Cc1cc(Nc2cccc(F)c2)n2nc(-c3ccco3)nc2n1,inactive: 6.93%
13,Cc1cccc(CN2C(=O)c3ccccc3Sc3ccc(C(=O)NCCc4ccccc4)cc32)c1,inactive: 1.17%
14,CCC(=O)N1CCc2cc(CNS(=O)(=O)c3ccc(Cl)s3)ccc21,inactive: -19.4%
15,O=C(Cn1nc(C(F)(F)F)c2c1CCCC2)Nc1ccc(F)c(Cl)c1,inactive: -11.5%
16,COc1ccc(-c2ccc(=O)n(CC(=O)Nc3ccc(N(C)C)cc3)n2)cc1,inactive: 2.07%
17,Cc1c(C(=O)NCc2ccc(F)cc2)sc2nc3n(c(=O)c12)CCC3,inactive: 14.1%
18,CCOc1ccc(NC(=O)c2cc(CN3CCCC3)on2)cc1,inactive: 0.228%
19,COc1ccc(OC)c(NC(=O)Cn2cc(C(=O)c3cccs3)c3ccccc32)c1,inactive: -34.9%
20,CSc1ccc(C2c3c(oc4ccc(F)cc4c3=O)C(=O)N2c2ccc(C)cn2)cc1 (stereo not drawn),inactive: -0.199%
21,Cc1c(NC(=O)c2cc3ccccc3o2)cccc1-c1nc2ccccc2o1,inactive: -2.41%
22,Cc1ccc2nc(Nc3ccc(Br)cc3)nc(-c3ccccc3)c2c1,inactive: -16.1%
23,Cc1cccc(N(C)C(=O)C2CCN(S(=O)(=O)c3cccc4nonc34)CC2)c1,inactive: -0.0268%

# Source: PubChem BioAssay AID1508642 (National Center for Advancing Translational Sciences (NCATS), 2021)
